B1: NYC-0005 (scFv)
scFv: GEVQLVESGGGVVQPGGSLRLSCVASGFTFDDYAMYWVRQVPGKDLEWVSLISGDGDITYYVDSVKGRFTVSRDNNKNSLYLQMKSLRVEDTALYYCAKDMIYYASWSGYGSSDYYYYVMDVWGQGTTVTVSSGGGGSGGGGSGGGGS[gap - about 100 residues]TRLEIKGAAAGAGGDYKDDDDKGAAAHHHHHH
notes: Captured by anti-His antibody in SPR; also called scFv of mAb24955N
B2: NYC-0007 (scFv)
scFv: GEVQLVESGGGVVQPGGSLRLSCAASGFTFDDYAMHWVRQAPGKGLEWVSLISGDGDNTYYADSVKGRFTISRDNNKNSLYLQMNSLRTEDTAFYYCAKELIFGKVLHDFYYYVMDVWGQGTTVTVSSGGGGSGGGGSGGGGS[gap - about 100 residues]TRLEIKGAAAGAGGDYKDDDDKGAAAHHHHHH
notes: Captured by anti-His antibody in SPR; also called scFv of mAb28075P

Biological target: T1, HLA-A*0201/β2-microglobulin/NY-ESO peptide complex (human, biotinylated with E. coli biotin ligase at the added recognition sequence (biotinylated form used in the ELISA))
T1 construct: also called HLA/NY-ESO; HLA-A2/NY-ESO
Test: SPR (Biacore T200), scFv captured by anti-His antibody, HLA/NY-ESO as analyte, single cycle kinetics

Binder	Kd
B1	9.3 nM
B2	1000 nM
